Reference: the supplement of paper PMC12217912
The other results are listed elsewhere or left out. The full chains were built here from the parent and the listed change. Values near 0.05 are background.

B1: TEV protease; numbered along this chain (parent)
chain: MGESLFKGPRDYNPISSSICHLTNESDGHTTSLYGIGFGPFIITNKHLFRRNNGTLVVQSLHGVFKVKDTTTLQQHLVDGRDMIIIRMPKDFPPFPQKLKFREPQREERICLVTTNFQTKSMSSMVSDTSCTFPSGDGIFWKHWIQTKDGQCGSPLVSTRDGFIVGIHSASNFTNTNNYFTSVPKNFMELLTNQEAQQWVSGWRLNADSVLWGGHKVFMVKPEEPFQPVKEATQL

Variants of: B1
Experiment: raw area under fraction-flipped curve 0-4 h after induction (AUC4h, not background-subtracted), DNA-recorder readout of cleavage of the substrate (dimensionless); higher = more cleavage of the substrate by the protease variant
Conditions: temperature: 34 °C; time window: 0-4 h after rhamnose induction
Experimental: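 In vivo DNA recorder in E. coli TOP10(DE3) ΔrhaA at 34 °C. Each TEVp single-site mutant (parent TEVp 0) is paired with a single-site variant of the 7-mer TEVs (canonical ENLYFQ|S). The substrate sits between flexible linkers in a Bxb1-sfGFP-TEVs-SsrA fusion, so cleavage stabilises Bxb1 and speeds flipping of a recombination array, read by NGS. The value is the raw area under the fraction-flipped curve over 0-4 h after rhamnose induction (AUC4h), with ≥20 reads per time point. It is not background-subtracted; inactive controls average about 0.047.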
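Further: Bxb1 expression induced with 0.2% (w/v) L-rhamnose at OD600 near 0.5, cultures sampled hourly, flipped fraction per protease–substrate barcode pair counted by paired-end Illumina sequencing.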

Variant	area with substrate CNLYFQS	area with substrate DNLYFQS	area with substrate HNLYFQS	area with substrate PNLYFQS	area with substrate SNLYFQS	area with substrate TNLYFQS	area with substrate VNLYFQS	area with substrate WNLYFQS	area with substrate INLYFQS	area with substrate KNLYFQS	area with substrate LNLYFQS	area with substrate MNLYFQS	area with substrate NNLYFQS	area with substrate RNLYFQS	area with substrate FNLYFQS	area with substrate GNLYFQS	area with substrate YNLYFQS	area with substrate QNLYFQS
T159I	0.0827	0.0864	0.0651	0.0768	0.0591	0.0569	0.0768	0.0713										
L73R	0.0541	0.0453	0.0606	0.0749	0.0546	0.052			0.0454	0.0675	0.0573	0.0196	0.0577					
S121I	0.0732	0.0909	0.0687	0.0811	0.0615	0.0649	0.0619	0.0692	0.058	0.0344	0.066	0.0957	0.0573	0.0527				
N13F	0.0879	0.0689	0.0611	0.0619	0.0691	0.065	0.0722	0.0345	0.06	0.0729	0.0673	0.054	0.0555	0.0678	0.0623	0.0717	0.0536	
Q234T	0.0608	0.0793	0.0804	0.0609	0.0783	0.067	0.0754	0.0661		0.0715	0.0627	0.0512	0.0728				0.0647	0.0751
S18Q	0.0542	0.111	0.0653	0.0911		0.0847	0.0755	0.0621	0.0701	0.0669	0.0832	0.0706			0.0731	0.0603	0.0744	
D82L	0.0401	0.0531	0.0421	0.0638	0.0536	0.0514	0.0531	0.0576					0.0478				0.048	
I84A	0.0554	0.0744		0.0667	0.0589	0.0688		0.0557	0.0608	0.0752	0.0741	0.0741	0.0477			0.0624		
M122V	0.0665	0.0761	0.0694	0.0614		0.0614		0.05			0.0571	0.0696						0.0469
M122I	0.0618	0.0745	0.0475		0.0534	0.0539		0.0597	0.0908			0.0787	0.0617				0.0557	
T31V	0.0771	0.0787	0.0698	0.0847	0.0729	0.0703		0.0394	0.0813	0.103	0.0704	0.056	0.085		0.052	0.0754	0.0506	
P225C	0.0406	0.0799	0.0686	0.0643	0.0607	0.0864		0.0594		0.0794		0.0879			0.0644	0.0498		0.0897
D79T	0.0553	0.0715			0.0675	0.0661	0.0746	0.0562		0.0577	0.0617	0.0418			0.0595			
H76D	0.0529	0.0648	0.0715		0.0573	0.0623		0.0378	0.0638				0.0613		0.0661	0.0767	0.0662	
I43H	0.034	0.0627	0.0451		0.0528	0.0479		0.0459	0.0461	0.0491	0.0344		0.058		0.0504	0.082	0.0483	
E223N	0.0837	0.0859	0.0667		0.0537	0.0673		0.0631		0.0722	0.0684	0.0601	0.076	0.0657	0.0661	0.0743		
E223Y	0.0705	0.0779	0.0579	0.0494	0.0591		0.0696	0.0588	0.0584		0.0595	0.0691	0.07		0.0619	0.0407	0.0632	0.0559
P94T	0.0681	0.0728		0.0728		0.0688	0.0783			0.0796		0.068	0.0681	0.073			0.0551	
W203V	0.0399	0.0424	0.0572		0.058	0.0547	0.0667	0.0535	0.0495		0.0712	0.0592		0.0467	0.0587	0.0343	0.0553	0.0668
Y12N	0.0375	0.0912	0.0624	0.112	0.0604	0.0795	0.0877	0.0579	0.0494	0.0744	0.0694		0.0695		0.0697	0.0651		0.0649
T70L	0.0711	0.075	0.0624	0.0647	0.07		0.0596	0.0547	0.061	0.0579	0.0566				0.0508		0.0563	0.0662
S130V	0.0691	0.0842	0.0813	0.0663		0.0847		0.0367	0.0589	0.0602	0.0566	0.0605	0.0789		0.0737	0.0704	0.0699	
V165P	0.0384	0.0477	0.0565	0.0534		0.0669		0.0548		0.0513	0.057		0.0632	0.0502		0.0514	0.0534	
I15M	0.048	0.0736		0.0668	0.0646	0.0631	0.0727	0.0625		0.0632		0.0629	0.0609				0.0605	
K98F	0.0787	0.0728	0.0594	0.0674					0.0909	0.0751			0.0713				0.0414	
T115Y	0.0344	0.081	0.0578	0.0679	0.0678	0.0646	0.0577	0.0632	0.0714			0.0254			0.0674	0.0665		0.0679
Y179R	0.0318	0.057	0.0497	0.0663	0.0571	0.0611		0.0728		0.139	0.0462		0.0617		0.0555		0.0644	
Y179E	0.0591	0.0878	0.0525	0.063	0.0584			0.0566	0.0551	0.0523	0.0663	0.0484				0.0636	0.0647	
